Columns and labels:
[1] = test system: Alternaia brassicicola; test: Test Example C: Alternaria sooty spot on cabbage; assay type: in vivo; conditions: 250 ppm drug solution sprayed on test plant
Excerpt: Seeds of a test plant (cabbage variety: Shikidori) were planted and cultivated until the cotyledons extended.
<Control Value> Control value=100{1−(n/3)}

[2] = test system: Botrytis cinerea; test: Test Example B: Gray mold on tomato; conditions: 250 ppm drug solution sprayed on test plant
[3] = test system: Plasmopara viticola; test: Test Example G: Downy mildew on vine; conditions: 250 ppm drug solution sprayed (2.5 ml/pot), grape Neomuscat, 7 to 10 days after inoculation
[4] = test system: Phytophthora infestans; assay type: in vivo; conditions: 250 ppm drug solution sprayed on test plant
[5] = test system: Puccinia recondita; test: Test Example E: Brown rust on wheat; assay type: in vivo; conditions: 250 ppm drug solution sprayed on test plant
[6] = test system: Magnaporthe grisea; assay type: in vivo; conditions: 250 ppm drug solution sprayed on test plant
[7] = test system: Blumeria graminis f. sp. hordei; test: Test Example D: Powdery mildew on barley; conditions: 250 ppm drug solution sprayed on test plant

Row | Compound | Test C control value [1] | Test B control value [2] | Test G control value [3] | Test F control value [4] | Test E control value [5] | Test A control value [6] | Test D control value [7]
1 | CCn1c(-c2c(F)cccc2F)c(C(C)(O)C(C)C)cc(Br)c1=O (centres unmarked) [compound 522] | H (more than 50% control value) | H (more than 50% control value) | H (more than 50% control value) | H (more than 50% control value) | H (more than 50% control value) | H (more than 50% control value) | H (more than 50% control value)
2 | CCn1c(-c2c(F)cccc2F)c(C(C)(OC)C(C)C)cc(Br)c1=O (centres unmarked) [compound 523] | H (more than 50% control value) | H (more than 50% control value) | H (more than 50% control value) | L (50% or less control value) | H (more than 50% control value) | H (more than 50% control value) | H (more than 50% control value)

Reference: US11147272B2, “Pyridone compounds and agricultural and horticultural fungicides comprising the same as active ingredients” (MITSUI CHEMICALS AGRO, INC., priority 2017, dated 2021)
